Assay results published in paper PMC4336329 (PLoS ONE, 2015).
Hit rate of the full screen: of about 310,000 compounds, about 14,000 (4.5%) showed an effect of 50% or more. The effect is printed as a negative number. The list shows a part of the results.

Biological target: human ether-à-go-go-related gene (hERG) potassium channel (human, UniProt Q12809)
Assay: primary screen, population patch clamp on CHO cells stably expressing hERG
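Further: peak tail current of the secondary pulse compared with the same well before compound.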

Sequence of human ether-à-go-go-related gene (hERG) potassium channel (Q12809 whole entry, looked up): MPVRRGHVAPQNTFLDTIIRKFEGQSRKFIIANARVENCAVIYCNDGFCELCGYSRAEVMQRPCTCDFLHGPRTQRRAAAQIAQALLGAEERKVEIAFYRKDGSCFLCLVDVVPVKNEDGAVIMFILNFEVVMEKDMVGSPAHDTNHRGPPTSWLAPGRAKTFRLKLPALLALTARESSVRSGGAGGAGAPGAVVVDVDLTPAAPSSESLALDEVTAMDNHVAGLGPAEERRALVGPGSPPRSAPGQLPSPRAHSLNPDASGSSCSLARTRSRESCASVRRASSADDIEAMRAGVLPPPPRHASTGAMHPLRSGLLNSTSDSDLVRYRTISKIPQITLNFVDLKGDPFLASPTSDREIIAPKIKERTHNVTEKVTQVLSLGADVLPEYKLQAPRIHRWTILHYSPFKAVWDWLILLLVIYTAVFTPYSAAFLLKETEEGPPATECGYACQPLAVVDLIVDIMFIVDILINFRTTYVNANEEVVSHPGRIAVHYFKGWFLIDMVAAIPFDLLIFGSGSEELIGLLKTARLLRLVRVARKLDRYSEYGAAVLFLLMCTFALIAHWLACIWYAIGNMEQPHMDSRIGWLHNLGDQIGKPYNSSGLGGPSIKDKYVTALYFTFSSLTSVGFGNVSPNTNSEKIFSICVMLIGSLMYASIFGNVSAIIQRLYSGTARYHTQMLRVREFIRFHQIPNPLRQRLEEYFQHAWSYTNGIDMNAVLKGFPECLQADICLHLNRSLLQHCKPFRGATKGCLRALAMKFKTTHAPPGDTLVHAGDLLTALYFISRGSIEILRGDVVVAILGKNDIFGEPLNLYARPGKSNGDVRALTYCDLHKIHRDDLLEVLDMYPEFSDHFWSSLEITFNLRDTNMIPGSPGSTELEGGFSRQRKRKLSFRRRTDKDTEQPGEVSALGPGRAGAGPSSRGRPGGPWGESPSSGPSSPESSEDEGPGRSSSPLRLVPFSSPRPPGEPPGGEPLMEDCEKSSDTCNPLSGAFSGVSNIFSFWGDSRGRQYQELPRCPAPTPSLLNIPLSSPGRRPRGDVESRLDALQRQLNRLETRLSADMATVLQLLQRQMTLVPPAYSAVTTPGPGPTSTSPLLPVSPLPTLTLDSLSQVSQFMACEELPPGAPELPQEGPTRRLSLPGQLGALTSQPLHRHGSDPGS

SMILES | hERG current change (%, negative = inhibition) at 10uM
CCCN1C(=O)C2(/C(=C(\O)c3ccc4c(c3)OCCO4)C(=O)C(=O)N2CCCOC)c2ccccc21 (stereo not shown) | -4.06%
Cn1c(=O)oc2cc(S(=O)(=O)Nc3ccc(O)cc3)ccc21 | 14.2%
Cc1c(C(=O)NC(Cc2ccccc2)c2nc3ccccc3[nH]2)cccc1[N+](=O)[O-] (stereo not shown) | 11.7%
Cc1ccc(CNC(=O)C(=O)NCC2OCCN2C(=O)c2cccs2)cc1 (stereo not shown) | -14.6%
Cc1ccc(NC(=O)CN(C)C(=O)c2cccc(S(=O)(=O)N3CCCC3)c2)cc1 | 5.72%
COc1ccc(S(=O)(=O)NC(Cc2cnc[nH]2)C(=O)O)cc1 (stereo not shown) | 21.9%
COc1cc(/C=N/Nc2nc(Nc3ccccc3)nc(-n3nc(C)cc3C)n2)cc(OC)c1OC | 1.71%
Fc1ccccc1N1CCN(CC2CCCCC2)CC1 | -1.99%
CC(C)(C)C(=O)Nc1ccccc1C(=O)NCCCn1ccnc1 | 3.44%
C/C(N)=C(/C#N)C(=O)CSc1nnc(-c2ccc3c(c2)OCO3)o1 | 21.2%
COc1cccc(-c2nc(CS(=O)CC(=O)N3CCC4(CC3)OCCO4)c(C)o2)c1 (stereo not shown) | 8.65%
Cc1ccccc1-n1c(SCC(=O)NCc2cccs2)nc2ccccc2c1=O | -17.4%
Cc1ccc(SCCN2CCN(CCc3ccccc3)CCC2=O)cc1 | -69.6%
CC(=O)c1ccc(NC(=O)NC2CCCCCCC2)cc1 | 10.2%
Cc1ccc(O)c(N=Nc2ccc(S(=O)(=O)N3CCOCC3)cc2)c1 | 4.01%
Cc1ccc(C(=O)COc2ccc3ccc(=O)oc3c2)cc1 | 47.3%
CNC(=O)c1ccc(S(=O)(=O)c2ccc(Cl)cc2)c(NC(C)=O)c1 | 18%
COCCNC(=O)NC(=O)COC(=O)c1ccc2[nH]c3c(c2c1)CCCC3 | 7.91%
COc1ccc(C(=O)CN2CCN(S(=O)(=O)c3cccc([N+](=O)[O-])c3)CC2)cc1OC | -5.28%
CCCCn1c(N)c(N(CCC(C)C)C(=O)c2ccc([N+](=O)[O-])s2)c(=O)[nH]c1=O | -51.1%
Cc1sc2ncnc(OCC(=O)NCC3CCCO3)c2c1C (stereo not shown) | 17.4%
C=CCNC(=O)c1ccccc1NC(=O)COc1ccccc1 | -12.3%

SMILES | hERG current change (%, negative = inhibition) at 10uM
CCCCCc1nnc(NC(=O)c2cccc(S(=O)(=O)N3CCOCC3)c2)s1 | -41.8%
COc1cccc(Nc2nc(N)nc(CCl)n2)c1 | 0.476%
CCc1ccc(Oc2nc([N+](=O)[O-])nn2C)cc1 | 5.87%
O=C(NCC1CCCO1)C1CCN(S(=O)(=O)c2ccccc2)CC1 (stereo not shown) | 2.93%
COc1ccc(OC)c(C2=NO[C@@H]3C(=O)N(c4cc(Cl)ccc4OC)C(=O)[C@H]23)c1 | 2.53%
CCOc1ccc(C(=O)Nc2ccc3c(c2)OCCO3)cc1OC | -0.0473%
COc1ccccc1C(=O)/C=C/c1ccc(N2CCCCC2)c([N+](=O)[O-])c1 | -26.3%
COc1ccccc1/C=C(/NC(=O)c1ccc(Cl)cc1Cl)C(=O)O | 22.2%
CC1(C)CC(=O)c2cnc(NC(=O)CSC(=S)N3CCCCC3)nc2C1 | -26.2%
CC(=O)Nc1ccc(CN2CCN(CC(C)C)C(CCO)C2)cc1 (stereo not shown) | 2.2%
Cc1ccc(C(=O)C2=C(O)C(=O)N(Cc3cccnc3)C2c2ccc(OC(C)C)cc2)o1 (stereo not shown) | 14.9%
Cl.O=C(NC(=S)N1CCN(Cc2ccccc2)CC1)c1ccco1 | 1.87%
COC(=O)c1ccc(NC(=O)C2CC(=O)N(c3cc(C)ccc3C)C2)cc1 (stereo not shown) | 8.48%
Cc1nnc(SCCn2c(Br)nc3c2c(=O)[nH]c(=O)n3C)s1 | 19.8%
COc1ccccc1N1CCN(C(=O)Cn2nnc(-c3cccs3)n2)CC1 | -3%
Cc1nnc2ccc(-c3cccc(NC(=O)Cc4cccs4)c3)nn12 | -25.9%
CCc1ccc2[nH]c(=O)c(CN(CCCN3CCOCC3)C(=O)Nc3ccccc3)cc2c1 | -54.2%
O=C(c1ccc(-c2nc3ccccc3s2)o1)N1CCN(c2ccccc2O)CC1 | 11.6%
Cc1ccc2nc(C3CCN(C(=O)c4ccco4)CC3)[nH]c2c1.Cl | -23.8%
COc1ccc(/C(C)=N/NS(=O)(=O)c2cc(C)ccc2C)c(OC)c1 | -15.3%
CCS(=O)(=O)Nc1cccc(-c2cc(-c3ccccc3)c3cc(C)ccc3n2)c1 | 4.97%
